Hit rate of the full screen: of about 360,000 compounds, about 7,500 (2.1%) were called active. Inconclusive means that the source gave no clear call. Such entries were picked first, then a sample of the others. Calls come from the whole dose curve; as a rule, active = well fitted cell-killing curve with a large enough effect; inconclusive = small, poorly fitted or top-dose-only effect, or effect the other way, or another doubt; inactive = no such curve, though single readings can be large or run the other way. Potencies of inconclusive entries are left out as doubtful fits.
Assay: qHTS for induction of synthetic lethality in tumor cells producing 2HG: qHTS for the HT-1080-IDH1KD cell line;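 for activity, negative = toxicity: 0% = DMSO wells and -100% = cell-free medium wells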
Settings: HT-1080 IDH1 knockdown viability, ATP luminescence, 48 h; activity, negative = toxicity: at 46.1 µM (top of the series) unless noted
Procedure, shortened: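 Knockdown cells (IDH1KD HT-1080) received compounds 2 h after plating at 750 cells/well and were kept 48 h at 37 °C in 5% FBS RPMI. A CellTiter-Glo luminescence read gave % activity for curve fitting.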
Potency is the fitted concentration of half-maximal effect; tags give direction and shape of the fitted curve.

**Q.** With `COc1cc(/C=C/C(=O)c2ccccc2O)cc(OC)c1OC` as the compound, how does the Potency read?
**A.** inconclusive [cytotoxic, single point]

**Q.** With `Cc1ccc(-c2csc(N3C(=N)SCC3=O)n2)cc1` as the compound, how does the Potency read?
**A.** inconclusive [rising, partial curve]

**Q.** For `OC[C@@H]1CN(Cc2ccc(-c3ccccc3)cc2)C[C@H](n2cnc3c(NC4CCCC4)ncnc32)O1`, which Potency is on record?
**A.** active: 20.6 µM

**Q.** With `CCCCCCCCN1C(=O)[C@H](CC(=O)N2CCSCC2)C[C@@]2(C(=O)OCC)CCCC=C12` as the compound, how does the Potency read?
**A.** inconclusive [cytotoxic, single point]

**Q.** With `C/C(=N\NC(=O)c1nnn(-c2nonc2N)c1CN(C)c1ccccc1)c1ccccn1` as the compound, how does the activity, negative = toxicity read?
**A.** inconclusive: 0% [cytotoxic]

**Q.** For `Cc1noc(C)c1S(=O)(=O)N1CCC(C(=O)Nc2ccc(Br)cc2)CC1`, which Potency is on record?
**A.** inconclusive [cytotoxic, single point]

**Q.** For `Cc1noc(C)c1C(=O)N1CCCC(C(=O)c2cccc(C(F)(F)F)c2)C1` (centres undefined), which Potency is on record?
**A.** inactive

**Q.** For `CCN(CC)C1CCN(C(=O)c2ccc(OC3CCN(CCc4ccccc4)CC3)cc2)C1` (centres undefined), which Potency is on record?
**A.** inconclusive [cytotoxic, single point]

**Q.** With `COc1ccc(-c2oc3cccnc3c2C#CC2(O)CCCCC2)cc1` as the compound, how does the Potency read?
**A.** inconclusive [cytotoxic, single point]

**Q.** With `COc1ccc(-c2c[n+]3c(n2-c2ccc(C)cc2)CCCCC3)cc1` as the compound, how does the Potency read?
**A.** inconclusive [cytotoxic, partial curve, poor fit]

**Q.** Which Potency does the source give for `COc1ccccc1N(C(=O)c1snc(C(N)=O)c1N)C(C(=O)NC1CCCC1)c1ccc2ncccc2c1` (centres undefined) here?
**A.** inconclusive [cytotoxic, partial curve]

**Q.** With `CCNC(=O)C(Sc1ccccc1)c1ccccc1` (centres undefined) as the compound, how does the Potency read?
**A.** inactive

**Q.** With `COC(=O)NNC(=S)NCc1ccccc1` as the compound, how does the Potency read?
**A.** inactive

**Q.** Which Potency does the source give for `Cc1ccc(N(C)S(=O)(=O)c2cccc(C(=O)Nc3nc4ccccc4[nH]3)c2)cc1` here?
**A.** inactive

**Q.** Which Potency does the source give for `CCc1ccc(NC(=O)Cn2nnc(C(=O)NCc3ccc4c(c3)OCO4)c2N)cc1` here?
**A.** inconclusive [cytotoxic, single point]

**Q.** With `CCCCc1nc(NCCNC(=O)c2ccccc2)c(C#N)c2c1CSC(C)(C)C2` as the compound, how does the Potency read?
**A.** inconclusive [cytotoxic, single point]

**Q.** With `C=CCn1nc([N+](=O)[O-])nc1Sc1cccc2cccnc12` as the compound, how does the Potency read?
**A.** inconclusive [cytotoxic, full curve]

**Q.** With `Cc1cccc(C(=O)Nc2ccc(C(=O)Nc3ccc(O)cc3)cc2)c1` as the compound, how does the Potency read?
**A.** active: 7.31 µM

**Q.** For `CC(=O)c1cc(-c2ccc(F)cc2)n(CCC(=O)NC(C)(C)C)c1C`, which Potency is on record?
**A.** inactive

— PubChem BioAssay AID686971 (National Center for Advancing Translational Sciences (NCATS), 2013)
